# In all, about 52,000 compounds went through this assay and about 4,300 (8.3%) were called active. Rule as the data show it: active = survival mostly below about 52% (no sharp cut-off); inactive = mostly above about 56%. This is one part of the list.
# Tested on: DeltatarO mutant
# Test: growth inhibition of S. aureus wild type versus tarO mutant, primary screen, teichoic acid synthesis inhibitors, RN4220, OD600 (AID 463173)
# Details: OD600, 18 h, stronger effect = lower value, screened at 18.75 µg/mL (by protocol)
row,Structure (SMILES),survival
1,O=C1C2C3C=CC(C3)C2C(=O)N1CCCCN1C(=O)C2C3C=CC(C3)C2C1=O (stereo not given),inactive: 93%
2,CC1(C)CC2=NNC(c3ccccc3)C2CO1 (stereo not given),inactive: 77%
3,Cc1ccc(NC(=O)c2oc3ccccc3c2NC(=O)C2CCCCC2)cc1,active: 2%
4,CCc1ccc(-n2c(=O)c3sc4ccccc4c3n(CC(=O)NC3CCCC3)c2=O)cc1,inactive: 77%
5,COc1cc(OC)c(NC(=O)CCc2nc(C3=CCN(Cc4cccc(Cl)c4)CC3)no2)cc1Cl,inactive: 75%
6,COc1ccc(CCNC(=O)CCc2c(C)c3ccc(O)c(C)c3oc2=O)cc1,inactive: 107%
7,Cc1nc2nc(CNC(=O)OC(C)(C)C)nn2c(C)c1CCC(=O)NCc1ccccc1Cl,inactive: 80%
8,Nc1nc(N)c(S(=O)(=O)c2ccccc2)c(Nc2ccccc2)n1,inactive: 69%
9,COc1cccc(C2C(=O)N(C3CCCCC3)CC(=O)N2CCc2ccc(OC)c(OC)c2)c1 (stereo not given),inactive: 91%
10,CCOC(=O)c1[nH]c2ccccc2c1N=CN(C)C,inactive: 97%
11,CCCC12CN3CC(CCC)(CN(C1)C3c1c[nH]c3ccc(OC)cc13)C2=O (stereo not given),inactive: 88%
12,O=C(CN1C(=O)CCSc2ccc(S(=O)(=O)N3CCCC3)cc21)Nc1ccccc1Cl,inactive: 96%
13,CCN(C(=O)CSc1nc2ccccc2nc1Cc1ccccc1OC)c1ccccc1,inactive: 81%
14,CCCOc1ccc(CC2C(=O)Nc3ccc(Br)cc32)cc1 (stereo not given),active: 0%
15,O=C(O)/C=C/C(=O)Nc1ccc(-c2nc3ccccc3o2)cc1,inactive: 74%
16,CCSC1=NC2(CCN(C(=O)NC3CCCCC3)CC2)N=C1c1ccc(OC)cc1,inactive: 107%
17,Cc1nc(CC(=O)Nc2ccc(C(N)=O)cc2)cs1,inactive: 49%
18,CC(C(=O)NCc1ccccc1)n1ccc2cc(S(=O)(=O)N3CCCC3)ccc21 (stereo not given),active: 20%
19,CCOc1ccccc1CNC(=O)CCc1cn(C)c2ccccc12,inactive: 99%
20,COc1ccc(NC(=O)Cn2c(=O)n(Cc3ccco3)c(=O)c3sc4ccccc4c32)cc1Cl,inactive: 80%
21,Cc1ccc(N2CCn3c2nc2c3c(=O)n(Cc3cccc(Cl)c3)c(=O)n2C)cc1C,inactive: 87%
22,CC(C)c1ccc(NC(=O)CN2C(=O)C3(SCC(=O)N3c3ccc(F)cc3)c3ccccc32)cc1 (stereo not given),inactive: 85%
23,O=C(Nc1ccc(Cl)cc1)c1ccc2c(c1)N(Cc1ccccc1)CCS2,inactive: 93%

row,Structure (SMILES),survival
1,CCOC(=O)c1cc2c(=O)n3ccccc3nc2n(CCCOC)c1=NC(=O)c1cc2ccccc2o1,inactive: 65%
2,COc1ccc(NC(=O)Cn2c(=O)n(Cc3ccccc3Cl)c(=O)c3cc(OC)c(OC)cc32)cc1,inactive: 83%
3,COc1cccc(-n2c(C)nc3c(cnn3-c3ccc(C)c(C)c3)c2=O)c1,active: 50%
4,Cc1ccc(Cn2c(C)c3cnn(CC(=O)N4CCN(c5cc(C)ccc5C)CC4)c(=O)c3c2C)cc1,inactive: 51%
5,Cc1ccc(CCNC(=O)c2cc3ccccn3n2)cc1,inactive: 93%
6,O=c1oc2ccc(Cl)cc2cc1-c1nc(-c2cccs2)no1,inactive: 100%
7,Cn1c(=Nc2cccc(O)c2)sc2ccccc21,inactive: 83%
8,Cc1ccc(C(=O)CC2(O)C(=O)N(CCc3ccccc3)c3ccc(Br)cc32)cc1 (stereo not given),inactive: 39%
9,CC(=O)Nc1ccc(S(=O)(=O)NC2(C(F)(F)F)C(=O)Nc3c2c(=O)[nH]c(=O)n3-c2ccc(C)cc2)cc1 (stereo not given),inactive: 76%
10,CCc1cccc(NC(=O)CN2C(=O)COc3ccc(S(=O)(=O)N4CCC(C)CC4)cc32)c1,inactive: 80%
11,CCOCCCNC(=O)C(c1ccc(OC)cc1)N(Cc1cccs1)C(=O)CNC(C)=O (stereo not given),inactive: 65%
12,COc1cccc(C(=O)NCc2cn3cccc(C)c3n2)c1,inactive: 90%
13,Cn1c(=O)n(C)c2cc(CNCc3ccccc3Cl)ccc21,inactive: 81%
14,O=C(c1ccccc1)N(Cc1ccco1)c1nc(-c2ccccc2)cs1,inactive: 78%
15,O=C(c1ccc(Cl)cc1)n1nc(-c2ccccc2)nc1NCc1ccco1,active: 29%
16,COC(=O)c1c(NC(=O)CS(=O)(=O)c2ccc(C)cc2)sc2c1CCCCC2,inactive: 76%
17,CCOc1cc2[nH]c(=O)n(CCC(=O)N3CCN(c4ccccc4)CC3)c(=O)c2cc1OCC,inactive: 78%
18,Cc1ccc(-n2nc3c(N4CCCC(C(=O)NCc5ccccc5C)C4)nnc(C)c3c2C)cc1 (stereo not given),inactive: 78%
19,COc1ccccc1C(=O)OCc1cc(=O)n2c(C)csc2n1,inactive: 72%
20,CCSc1ncc(Cl)c(C(=O)Nc2cc(C)ccc2C)n1,inactive: 85%
21,O=C(CNS(=O)(=O)c1ccccc1)NCC1CCCO1 (stereo not given),inactive: 89%
22,CCCOC(=O)c1c(-c2ccccc2)c(-c2ccccc2)nn(C)c1=O,inactive: 60%
23,CC(=O)c1c(C)n(-c2cccc(Cl)c2)c2ccc(OC(=O)c3ccccc3)cc12,inactive: 77%

row,Structure (SMILES),survival
1,COc1cccc(NC(=O)CSc2nc(=O)[nH]c3c2CCCC3)c1,inactive: 82%
2,COc1ccc(CCNC(=O)CN2C3CCCC2CC(=O)NC3)cc1OC (stereo not given),inactive: 81%
3,N#C/C(=C(/O)CN1C(=O)c2ccccc2C1=O)c1nc2ccccc2[nH]1,inactive: 76%
4,CCOc1ccc(S(=O)(=O)Nc2cc3c(C(=O)OCc4ccccc4)c(C)oc3c3ccccc23)cc1,inactive: 94%
5,CCOc1ccc(NC(=O)c2nn(C)c3c2COc2ccccc2-3)cc1,inactive: 69%
6,CC(C)c1ccc(NC(=O)CSC2=Nc3ccccc3C3=NC(CCC(=O)NCc4cccs4)C(=O)N23)cc1 (stereo not given),inactive: 73%
7,COc1ccc2c(c1)c1c(c(=O)n(-c3cc(Cl)ccc3C)c(=O)n1Cc1ccc(F)cc1)n2C,inactive: 102%
8,Cc1cc(C)nc(NCC(O)CNc2ccccc2Cl)n1 (stereo not given),inactive: 80%
9,Cc1ccc(NC(=O)N2CCN3CCCCC3C2)cc1C (stereo not given),inactive: 80%
10,Cc1c(Cl)cccc1-n1ncc(C(=O)NC2CCCC2)c1C1CCN(C(=O)OC(C)(C)C)CC1,inactive: 102%
11,Cc1oc2ncn(C)c(=O)c2c1C(=O)N(C)c1ccccc1F,inactive: 87%
12,COc1ccc(NC(=O)CSC2=Nc3ccccc3C3=NC(CCC(=O)NCCc4ccccc4)C(=O)N23)cc1 (stereo not given),inactive: 87%
13,CC(C)(C)OC(=O)N1CCC(c2c(C(=O)N3CCN(C4CCCCC4)CC3)cnn2-c2cccc(Cl)c2)CC1,inactive: 73%
14,COC(=O)c1ccc(NS(=O)(=O)c2ccc3[nH]c4c(c3c2)CCCCC4)cc1,inactive: 91%
15,CC(=O)N1CCCc2cc(S(=O)(=O)N3CCC(C(=O)NC4CCCCC4)CC3)ccc21,inactive: 94%
16,CCOC(=O)N1CCC(NC(=O)c2cnn(-c3cccc(C)c3)c2-n2cccc2)CC1,inactive: 85%
17,O=C1C2=C(Nc3ccccc3SC2c2c(F)cccc2Cl)c2ccccc21 (stereo not given),inactive: 94%
18,COc1ccc(NC(=O)Nc2cn(CC(C)C)c(=O)c3ccccc23)c(OC)c1,inactive: 91%
19,O=C(NCCc1ccc(F)cc1)C(=O)NCC(c1cccs1)S(=O)(=O)c1cccs1 (stereo not given),inactive: 113%
20,COc1ccc(-c2cc(-c3ccccc3)nc3c2COc2ccc(Cl)cc2-3)cc1,inactive: 87%
21,CCC(C)C12CN(C(C)=O)CC(C)(CN(C(C)=O)C1)C2=O (stereo not given),inactive: 108%
22,Cc1cccc(OCCn2nnc3sc4c(c3c2=O)CCCC4)c1,inactive: 65%
23,CC(C)c1ccc(NS(=O)(=O)c2ccc3[nH]cc(C(=O)NC4CCCCC4)c(=O)c3c2)cc1,active: 14%

row,Structure (SMILES),survival
1,CC1=C(C(=O)Nc2ccc(C)cc2C)C(c2ccc(C(C)C)cc2)n2nc(C(F)(F)F)nc2N1 (stereo not given),inactive: 57%
2,COc1ccc(-n2c(-c3ccc(Cl)cc3)cc3c2CC(C)(C)CC3=O)c(OC)c1,active: 4%
3,CCOC(=O)c1sc(NC(=O)c2nc(SC)ncc2Cl)c(C(=O)OCC)c1C,inactive: 89%
4,CCOCc1nnc(NS(=O)(=O)c2ccc(Cl)cc2)s1,inactive: 99%
5,Cc1cccc(-n2cc(-c3ccccc3)nc2SCC(=O)Nc2ccccc2Cl)c1,inactive: 115%
6,Cc1ccc(C)c(NC(=O)C(C)N(c2ccccc2)S(C)(=O)=O)c1 (stereo not given),inactive: 139%
7,Cc1oc2ncn(CC(C)C)c(=O)c2c1C(=O)Nc1ccc(Cl)cn1,inactive: 86%
8,O=C(NCc1ccccc1Cl)C1CCCN(c2nc3ccccc3n3cccc23)C1 (stereo not given),active: 46%
9,Cc1ccc(C)c(S(=O)(=O)NCC(c2ccc(N(C)C)cc2)N2CCOCC2)c1 (stereo not given),inactive: 71%
10,COc1cccc(-c2cc(C(F)(F)F)nc(NCc3ccc(F)cc3)n2)c1,active: 4%
11,COc1cccc(-c2nc(S(=O)(=O)c3ccccc3)c(NCc3ccccc3)o2)c1,inactive: 61%
12,Cn1c(=O)c2sccc2n2c(CCCC(=O)Nc3ccc(F)c(F)c3)nnc12,inactive: 125%
13,COc1ccc(CCNC(=O)c2ccc3c(c2)nc2n3CCOC2)cc1OC,active: -2%
14,Cc1c(C(=O)Nc2ccc(F)cc2F)nnn1-c1ccccc1Br,inactive: 66%
15,COc1ccc(C(=O)/C=C/c2cn(CC(O)CN(CC(C)C)CC(C)C)c3ccccc23)cc1OC (stereo not given),inactive: 91%
16,COCCCNC(=O)c1c(C)nn(-c2ccc(F)cc2)c1-n1cccc1,inactive: 85%
17,CC(C)c1ccc(NC(=O)CCS(=O)(=O)c2ccc(Br)s2)cc1,inactive: 114%
18,CC1=C(C(=O)Nc2ccccc2)C(c2ccncc2)n2nc(SCc3ccccc3)nc2N1 (stereo not given),inactive: 72%
19,Cc1cccc2cc(C#N)c(SCC#N)nc12,inactive: 99%
20,Cc1cccc(C)c1NC(=O)c1ccc2nc(CCc3ccccc3)oc2c1,inactive: 69%
21,Cc1cccc(NC(=O)c2sc3cccc(Cl)c3c2Cl)c1,active: 11%

# Reference: PubChem BioAssay AID463173 (ICCB-Longwood Screening Facility, Harvard Medical School, 2010)
